# Source: US20220387586A1
# Biological target: LAG3 on PD1+LAG3+ human U2OS cells (Homo sapiens (Human)), P18627
# Assay: cell-based or functional assay
# LAG3 on PD1+LAG3+ human U2OS cells (Homo sapiens (Human)), P18627, sequence (P18627 29-525 limits assumed, form in doubt): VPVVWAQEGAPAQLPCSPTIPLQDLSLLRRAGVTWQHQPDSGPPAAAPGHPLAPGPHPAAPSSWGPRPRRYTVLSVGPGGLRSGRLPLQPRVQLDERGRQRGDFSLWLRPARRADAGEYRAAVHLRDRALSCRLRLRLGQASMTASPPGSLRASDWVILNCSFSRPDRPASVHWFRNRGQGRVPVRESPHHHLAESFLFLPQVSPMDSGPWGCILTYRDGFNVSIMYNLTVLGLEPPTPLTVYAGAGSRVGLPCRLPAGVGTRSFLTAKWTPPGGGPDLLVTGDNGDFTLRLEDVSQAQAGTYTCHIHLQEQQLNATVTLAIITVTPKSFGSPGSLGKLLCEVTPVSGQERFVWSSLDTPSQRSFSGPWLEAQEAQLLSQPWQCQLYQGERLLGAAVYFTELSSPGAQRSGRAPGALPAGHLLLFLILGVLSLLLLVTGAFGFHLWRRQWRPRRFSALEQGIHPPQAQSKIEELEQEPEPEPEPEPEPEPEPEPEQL
row,Binder,"EC50 [pM], dimerization binding assay (chemoluminescence) [pM]"
1,"PD1/LAG3 0927 (bispecific antibody, human IgG1, kappa) heavy 1: DIVMTQSPDSLAVSLGERATINCKASESVDTSDNSFIHWYQQKPGQSPKLLIYRSSTLESGVPDRFSGSGSGTDFTLTISSLQAEDVAVYYCQQNYDVPWTFGQGTKVEIKSSASTKGPSVFPLAPSSKSTSGGTAALGCLVKDYFPEPVTVSWNSGALTSGVHTFPAVLQSSGLYSLSSVVTVPSSSLGTQTYICNVNHKPSNTKVDKKV[sequence of human IgG1 Fc with changes not given] heavy 2: EVQLLESGGGLVQPGGSLRLSCAASGFIFDDYTMNWVRQAPGKGLEWVAVISWDGGGTYYTDSVKGRFTISRDDFKNTLYLQMNSLRAEDTAVYYCAKGLTDTTLYGSDYWGQGTLVTVSSASTKGPSVFPLAPSSKSTSGGTAALGCLVEDYFPEPVTVSWNSGALTSGVHTFPAVLQSSGLYSLSSVVTVPSSSLGTQTYICNVNHKPSNTKVDEKVEPKSCDKTHTCPPCPAPEAAGGPSVFLFPPKPKDTLMISRTPEVTCVVVDVSHEDPEVKFNWYVDGVEVHNAKTKPREEQYNSTYRVVSVLTVLHQDWLNGKEYKCKVSNKALGAPIEKTISKAKGQPREPQVCTLPPSRDELTKNQVSLSCAVKGFYPSDIAVEWESNGQPENNYKTTPPVLDSDGSFFLVSKLTVDKSRWQQGNVFSCSVMHEALHNHYTQKSLSLSPGK light 1: EVQLLESGGGLVQPGGSLRLSCAASGFSFSSYTMSWVRQAPGKGLEWVATISGGGRDIYYPDSVKGRFTISRDNSKNTLYLQMNSLRAEDTAVYYCVLLTGRVYFALDSWGQGTLVTVSSASVAAPSVFIFPPSDEQLKSGTASVVCLLNNFYPREAKVQWKVDNALQSGNSQESVTEQDSKDSTYSLSSTLTLSKADYEKHKVYACEVTHQGLSSPVTKSFNRGEC light 2: DIQMTQSPSSLSASVGDRVTITCRASQSISSYLNWYQQKPGKAPKLLIYAASTLQSGVPSRFSGSGSGTDFTLTISSLQPEDFATYYCQQTYSSPLTFGGGTKVEIKRTVAAPSVFIFPPSDRKLKSGTASVVCLLNNFYPREAKVQWKVDNALQSGNSQESVTEQDSKDSTYSLSSTLTLSKADYEKHKVYACEVTHQGLSSPVTKSFNRGEC",41
2,"PD1/LAG3 8310 (bispecific antibody, human IgG1, kappa) heavy 1: EVQLLESGGGLVQPGGSLRLSCAASGFIFDDYTMNWVRQAPGKGLEWVAVISWDGGGTYYTDSVKGRFTISRDDFKNTLYLQMNSLRAEDTAVYYCAKGLTDTTLYGSDYWGQGTLVTVSSASTKGPSVFPLAPSSKSTSGGTAALGCLVEDYFPEPVTVSWNSGALTSGVHTFPAVLQSSGLYSLSSVVTVPSSSLGTQTYICNVNHKPSNTKVDEKV[sequence of human IgG1 Fc with changes not given]GGSGGGGSGGGGSGGGGSEVQLLESGGGLVQPGGSLRLSCAASGFSFSSYTMSWVRQAPGKGLEWVATISGGGRDIYYPDSVKGRFTISRDNSKNTLYLQMNSLRAEDTAVYYCVLLTGRVYFALDSWGQGTLVTVSSASVAAPSVFIFPPSDEQLKSGTASVVCLLNNFYPREAKVQWKVDNALQSGNSQESVTEQDSKDSTYSLSSTLTLSKADYEKHKVYACEVTHQGLSSPVTKSFNRGEC heavy 2: EVQLLESGGGLVQPGGSLRLSCAASGFIFDDYTMNWVRQAPGKGLEWVAVISWDGGGTYYTDSVKGRFTISRDDFKNTLYLQMNSLRAEDTAVYYCAKGLTDTTLYGSDYWGQGTLVTVSSASTKGPSVFPLAPSSKSTSGGTAALGCLVEDYFPEPVTVSWNSGALTSGVHTFPAVLQSSGLYSLSSVVTVPSSSLGTQTYICNVNHKPSNTKVDEKVEPKSCDKTHTCPPCPAPEAAGGPSVFLFPPKPKDTLMISRTPEVTCVVVDVSHEDPEVKFNWYVDGVEVHNAKTKPREEQYNSTYRVVSVLTVLHQDWLNGKEYKCKVSNKALGAPIEKTISKAKGQPREPQVCTLPPSRDELTKNQVSLSCAVKGFYPSDIAVEWESNGQPENNYKTTPPVLDSDGSFFLVSKLTVDKSRWQQGNVFSCSVMHEALHNHYTQKSLSLSPGK light 1: DIVMTQSPDSLAVSLGERATINCKASESVDTSDNSFIHWYQQKPGQSPKLLIYRSSTLESGVPDRFSGSGSGTDFTLTISSLQAEDVAVYYCQQNYDVPWTFGQGTKVEIKSSASTKGPSVFPLAPSSKSTSGGTAALGCLVKDYFPEPVTVSWNSGALTSGVHTFPAVLQSSGLYSLSSVVTVPSSSLGTQTYICNVNHKPSNTKVDKKVEPKSC light 2: DIQMTQSPSSLSASVGDRVTITCRASQSISSYLNWYQQKPGKAPKLLIYAASTLQSGVPSRFSGSGSGTDFTLTISSLQPEDFATYYCQQTYSSPLTFGGGTKVEIKRTVAAPSVFIFPPSDRKLKSGTASVVCLLNNFYPREAKVQWKVDNALQSGNSQESVTEQDSKDSTYSLSSTLTLSKADYEKHKVYACEVTHQGLSSPVTKSFNRGEC",114
3,"PD1/LAG3 8970 (bispecific antibody, human IgG1, kappa) heavy: EVQLLESGGGLVQPGGSLRLSCAASGFIFDDYTMNWVRQAPGKGLEWVAVISWDGGGTYYTDSVKGRFTISRDDFKNTLYLQMNSLRAEDTAVYYCAKGLTDTTLYGSDYWGQGTLVTVSSASTKGPSVFPLAPSSKSTSGGTAALGCLVEDYFPEPVTVSWNSGALTSGVHTFPAVLQSSGLYSLSSVVTVPSSSLGTQTYICNVNHKPSNTKVDEKV[sequence of human IgG1 Fc with changes not given]GGSGGGGSGGGGSGGGGSEVQLLESGGGLVQPGGSLRLSCAASGFSFSSYTMSWVRQAPGKGLEWVATISGGGRDIYYPDSVKGRFTISRDNSKNTLYLQMNSLRAEDTAVYYCVLLTGRVYFALDSWGQGTLVTVSSASVAAPSVFIFPPSDEQLKSGTASVVCLLNNFYPREAKVQWKVDNALQSGNSQESVTEQDSKDSTYSLSSTLTLSKADYEKHKVYACEVTHQGLSSPVTKSFNRGEC light 1: DIVMTQSPDSLAVSLGERATINCKASESVDTSDNSFIHWYQQKPGQSPKLLIYRSSTLESGVPDRFSGSGSGTDFTLTISSLQAEDVAVYYCQQNYDVPWTFGQGTKVEIKSSASTKGPSVFPLAPSSKSTSGGTAALGCLVKDYFPEPVTVSWNSGALTSGVHTFPAVLQSSGLYSLSSVVTVPSSSLGTQTYICNVNHKPSNTKVDKKVEPKSC light 2: DIQMTQSPSSLSASVGDRVTITCRASQSISSYLNWYQQKPGKAPKLLIYAASTLQSGVPSRFSGSGSGTDFTLTISSLQPEDFATYYCQQTYSSPLTFGGGTKVEIKRTVAAPSVFIFPPSDRKLKSGTASVVCLLNNFYPREAKVQWKVDNALQSGNSQESVTEQDSKDSTYSLSSTLTLSKADYEKHKVYACEVTHQGLSSPVTKSFNRGEC",83
